Measurements as given in PubChem BioAssay AID2147 (National Center for Advancing Translational Sciences (NCATS), 2009).
Screen size: about 230,000 compounds; about 3,600 (1.6%) were called active. This list was built around the results that the source calls inconclusive (neither active nor inactive); the mix of calls is not that of the screen. Calls come from the whole dose curve; as a rule, active = well fitted inhibition curve with a large enough effect (not every such curve was filed as active); inconclusive = small, poorly fitted or top-dose-only effect, or another doubt; inactive = no such curve, though single readings can be large or run the other way. Potencies beside an inconclusive call are fits to weak or partial responses and may not hold up.

target: Lysine-specific demethylase 4E (Homo sapiens) (UniProt B2RXH2); assay: qHTS Assay for Inhibitors of Human Jumonji Domain Containing 2E (JMJD2E); settings: JMJD2E catalytic domain, FDH-coupled NADH fluorescence (FDH is formaldehyde dehydrogenase); series mostly up to 57.1 µM
Note: nearly all actives have a fitted effect of over 50% in size.
Potency is the fitted concentration of half-maximal effect; tags give direction and shape of the fitted curve.

Sequence of UniProt B2RXH2 (B2RXH2 whole entry, looked up, the tested form may be a part): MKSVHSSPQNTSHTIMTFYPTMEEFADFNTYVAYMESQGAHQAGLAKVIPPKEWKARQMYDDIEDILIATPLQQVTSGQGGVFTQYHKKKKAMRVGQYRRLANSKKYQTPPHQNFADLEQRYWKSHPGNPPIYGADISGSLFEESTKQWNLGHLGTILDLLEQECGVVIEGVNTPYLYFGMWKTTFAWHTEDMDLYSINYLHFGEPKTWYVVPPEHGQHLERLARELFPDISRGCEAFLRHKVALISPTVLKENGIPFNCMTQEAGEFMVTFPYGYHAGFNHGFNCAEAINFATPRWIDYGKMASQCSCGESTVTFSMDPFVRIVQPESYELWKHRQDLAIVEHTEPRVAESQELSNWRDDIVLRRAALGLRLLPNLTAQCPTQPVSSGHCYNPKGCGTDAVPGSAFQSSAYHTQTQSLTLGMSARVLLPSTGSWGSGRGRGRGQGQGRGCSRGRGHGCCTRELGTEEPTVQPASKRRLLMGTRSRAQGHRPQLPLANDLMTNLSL

Compound | Potency
O=C(OC(C(=O)O)C(OC(=O)c1ccccc1)C(=O)NCc1ccccc1)c1ccccc1 (stereo not drawn) | inactive
COc1ccc2[nH]c(C(=O)Nc3ncc(C)cc3Br)cc2c1 | inconclusive: 31.6 µM [inhibitor, single point]
O=C(OCn1ncc(Br)c(Br)c1=O)c1ccc(F)cc1 | inactive
Cc1ccccc1OCCOc1ccccc1C=C(C#N)C#N | inconclusive: 35.5 µM [inhibitor, single point]
Cc1cc(NCCCn2ccnc2)n2c(nc3ccccc32)c1C#N | inconclusive: 28.2 µM [inhibitor, partial curve]
Cc1cccc(N2C(=O)CC(Sc3nc(-c4ccccc4)c4cc(Cl)ccc4n3)C2=O)c1 (stereo not drawn) | inconclusive: 25.1 µM [inhibitor, partial curve]
O=C(O)CCN1C(=O)/C(=C\c2ccncc2)SC1=S | inconclusive: 10 µM [inhibitor, partial curve]
COc1ccc(OCC(O)CNC(=O)c2ccc(OC)cc2)cc1 (stereo not drawn) | inactive
CCOc1ccccc1NC(=O)C1CCN(c2ccc(S(=O)(=O)N3CCCC3)cc2)CC1 | inconclusive: 28.2 µM [inhibitor, single point]
CC(C)CN(Cc1cc(=O)oc2cc(-c3ccccc3)c(O)cc12)CC(C)C | inconclusive: 28.2 µM [inhibitor, partial curve]
O=C(NN=c1c(=O)c2ccccc2c1=O)c1ccccc1 | inactive
CCC(=O)Oc1ccc2c(c1)O/C(=C\c1ccco1)C2=O | inconclusive: 31.6 µM [inhibitor, single point]
COc1cc(-c2nc(CN3CCCN(C(=O)c4ccco4)CC3)c(C)o2)ccc1F | inconclusive: 31.6 µM [inhibitor, partial curve]
CSc1nsc(/C=C/Nc2ccc(O)cc2C)c1C#N | active: 12.6 µM
CC(=O)c1c(C)[nH]c(C2=NNC(=NCc3ccccc3)SC2)c1C | inconclusive: 35.5 µM [inhibitor, single point]
CCOC(=O)c1c(C)[nH]c(C(=O)N/N=C/c2ccc(Br)cc2)c1C | inconclusive: 39.8 µM [inhibitor, single point]
Fc1cccc(C[n+]2csc3ccccc32)c1 | inconclusive: 35.5 µM [inhibitor, single point]
CCOC(=O)c1c(/N=C/c2cc(C)ccc2O)sc2c1CCN(C)C2 | inconclusive: 22.4 µM [inhibitor, partial curve]
Cn1c(=O)c2[nH]c(N3CCN(c4ccccc4)CC3)nc2n(C)c1=O | inactive
N#Cc1c(N)nc2c(c1-c1cccs1)CCCC2 | inconclusive: 35.5 µM [inhibitor, single point]
CN(C)NC(=S)Nc1ccc2nc(-c3ccccn3)c(-c3ccccn3)nc2c1 | inconclusive: 31.6 µM [inhibitor, partial curve]
O=C1C=C(NCc2ccccc2)c2ccccc2C1=O | inconclusive: 3.98 µM [inhibitor, partial curve]
COc1cc(/C=C/C(=O)O)cc(Br)c1O | inconclusive: 28.2 µM [inhibitor, partial curve]

Compound | Potency
CCCS(=O)(=O)c1c(S(=O)(=O)CCC)c2cc(-c3ccncc3)ccn2c1C(=O)OC | inconclusive: 31.6 µM [inhibitor, partial curve]
Cc1ccc(C(=O)OCC(=O)N2CCC(Cc3ccccc3)CC2)cc1N | inconclusive: 39.8 µM [inhibitor, single point]
O=C(Nc1ccc2c(c1)CCC2)C1CCN(c2ncccn2)CC1 | inconclusive: 25.1 µM [inhibitor, single point]
CCOC(=O)c1c(NC(=O)c2cc3n(n2)C(C(F)(F)F)CC(c2cccs2)N3)sc(C)c1C (stereo not drawn) | inconclusive: 0.631 µM [inhibitor, partial curve]
CCOC(=O)/C=c1\s/c(=C\c2ccccc2C)c(=O)n1CC(=O)NCc1ccc2c(c1)OCO2 | inconclusive: 25.1 µM [inhibitor, single point]
CCN(CC(=O)c1c(N)n(C)c(=O)n(C)c1=O)c1cccc2ccccc12 | inconclusive: 25.1 µM [inhibitor, single point]
Cc1cc(=O)oc2cc(OCC(=O)OCC(=O)NC3CC3)ccc12 | inconclusive: 28.2 µM [inhibitor, partial curve]
Cc1nc(N2CCOCC2)nc2c1CCC2 | inconclusive: 31.6 µM [inhibitor, partial curve]
Cc1ccc(NC(=O)c2nc[nH]c2C(=O)N2CCN(c3ccccc3)CC2)cc1 | inconclusive: 39.8 µM [inhibitor, single point]
COc1ccccc1N(CC(=O)NCc1ccccc1)C(=O)CCC(=O)Nc1ccccn1 | inactive
COc1ccc2c(c1)cc1n2CCN=C1NN | inconclusive: 28.2 µM [inhibitor, partial curve]
Oc1ccc(-c2cn3c(n2)SCC3)cc1O | active: 12.6 µM
CCN1CC(c2ccccc2)C(c2ccc(Cl)cc2)=N1 (stereo not drawn) | inconclusive: 28.2 µM [inhibitor, partial curve]
CCOC(=O)c1ccc(NC(=S)N2CCN(c3ccc(N4CCOCC4)nn3)CC2)cc1 | inconclusive: 10 µM [inhibitor, partial curve]
COc1cc(C(=O)N(CCCO)Cc2cc3ccc(C)c(C)c3[nH]c2=O)cc(OC)c1OC | inconclusive: 25.1 µM [inhibitor, single point]
CCOc1ccc(NC(=O)c2ccc(OC)cc2)cc1 | inconclusive: 39.8 µM [inhibitor, single point]
COc1ccc(-c2cc(C(=O)Nc3cc(C)nn3-c3ccccc3)no2)cc1OC | inconclusive: 28.2 µM [inhibitor, single point]
N#Cc1c(N2CCN(C(=O)c3ccccc3)CC2)nc(-c2ccccc2)c2c1CCCC2 | inconclusive: 35.5 µM [inhibitor, partial curve]
O=C1CC(Nc2ccc(N3CCOCC3)cc2)C(=O)N1c1cccc(C(F)(F)F)c1 (stereo not drawn) | inconclusive: 31.6 µM [inhibitor, single point]
c1ccc(CSc2ncnc3c2sc2nc(N4CCOCC4)c4c(c23)CCCC4)cc1 | inconclusive: 5.62 µM [inhibitor, single point]
COc1cccc(NC(=S)Nc2cccnc2)c1 | inactive
COc1ccc(Nc2nc(N)nc(CCl)n2)cc1 | inconclusive: 39.8 µM [inhibitor, single point]
COc1ccc(-c2nn(-c3ccccc3)cc2C(=O)Nc2nccs2)cc1OC | inconclusive: 25.1 µM [inhibitor, single point]

Compound | Potency
CCOC(=O)c1[nH]c2ccc(Br)cc2c1NC(=O)CCN1CCN(C(=O)OCC)CC1 | inconclusive: 25.1 µM [inhibitor, single point]
CCOC(=O)C1(CCCc2ccccc2)CCN(C(=O)COC)CC1 | inactive
NC(=O)c1cccc(C(N)=O)n1 | inactive
Cn1c(C(=O)NCCCN2CCOCC2)cc2c(=O)n(C)c3ccccc3c21 | inconclusive: 31.6 µM [inhibitor, partial curve]
CNc1ncnc2ccc(-c3ccccc3OC)cc12 | inconclusive: 25.1 µM [inhibitor, partial curve]
O=C(NCc1ccccc1F)c1cccs1 | inactive
COc1ccc(/C=N/NC(=O)c2cc(-c3cccnc3)nc3ccccc23)c(OC)c1 | inconclusive: 39.8 µM [inhibitor, single point]
CC(=O)c1ccc(NC(=O)c2ccc3nc(-c4ccco4)c(-c4ccco4)nc3c2)cc1 | inconclusive: 28.2 µM [inhibitor, partial curve]
O=C(CSc1ncccc1-c1nc2ccccc2[nH]1)Nc1ccc2c(c1)OCCO2 | inconclusive: 39.8 µM [inhibitor, single point]
COc1ccc2c(CCNC(=O)c3ccco3)c[nH]c2c1 | inactive
C/C(=N/Nc1nc(-c2ccccc2)cc(-c2ccccc2)n1)c1ccc(N)cc1 | inactive
CCNc1nc(NCC)nc(N(CC)C(N)=S)n1 | inconclusive: 12.6 µM [inhibitor, partial curve]
CC(C)N1CC2=C(OC(N)=C(C#N)C2c2cccnc2)/C(=C/c2cccnc2)C1 (stereo not drawn) | inconclusive: 25.1 µM [inhibitor, partial curve]
COc1ccc(NS(=O)(=O)c2cc(NC(=O)c3ccc(C)s3)ccc2N2CCOCC2)cc1 | inconclusive: 35.5 µM [inhibitor, single point]
COc1ccc(C)c2sc(=NC(=O)c3ccccc3)n(C)c12 | inconclusive: 7.08 µM [inhibitor, single point]
Cc1nc2ccccn2c1C(=O)N/N=C/c1cc(C)n(-c2ccc(Cl)cc2)c1C | inconclusive: 25.1 µM [inhibitor, single point]
O=C(Nc1ccccc1C(F)(F)F)c1cc2ncc(CCCl)cn2n1 | inconclusive: 35.5 µM [inhibitor, single point]
O=C(CSc1nc2[nH]ncc2c(=O)[nH]1)N1CCCC1 | inactive
Cc1cc(=O)oc2cc(OCC3CC(c4ccc(Cl)cc4)=NO3)ccc12 (stereo not drawn) | inconclusive: 35.5 µM [inhibitor, single point]
CC1=C(C(N)=O)C(c2ccccn2)n2nc(SCc3ccccc3)nc2N1 (stereo not drawn) | inconclusive: 35.5 µM [inhibitor, single point]
Cc1cc(C)nc(NC(=O)/C=C/c2ccc(Cl)cc2Cl)c1 | inconclusive: 22.4 µM [inhibitor, single point]
CNc1nc(-c2ccc3c(c2)CCN3C(=O)c2ccccc2C)cs1 | inactive
